# Changes are numbered by the printed parent chain; changes in the protein carry UniProt numbers. The list shows a part of the results.
# B1: UCAGGAU (DNA:RNA)
# RNA: GGGAGACCGGAAUUCAGAUUGUCCUCAGGAUUUAAAUCCCGUCGUAGCCACCA
# DNA 1: CAATCTGAATTCCGGTCTCCC
# DNA 2: TGGTGGCTACGACGGGATT
# B2: GAAAUGG (DNA:RNA)
# RNA: B1 RNA with U25G, C26A, G28A, G29U, A30G, U31G
# DNA 1: CAATCTGAATTCCGGTCTCCC
# DNA 2: TGGTGGCTACGACGGGATT
# B3: GUGCUUC (DNA:RNA)
# RNA: GGGAGACCGGAAUUCAGAUUGUCCGUGCUUCUUAAAUCCCGUCGUAGCCACCA
# DNA 1: CAATCTGAATTCCGGTCTCCC
# DNA 2: TGGTGGCTACGACGGGATT
# B4: GACUCUU (DNA:RNA)
# RNA: B3 RNA with U26A, G27C, C28U, U29C, C31U
# DNA 1: CAATCTGAATTCCGGTCTCCC
# DNA 2: TGGTGGCTACGACGGGATT
# B5: UUUAACC (DNA:RNA)
# RNA: B3 RNA with G25U, G27U, C28A, U29A, U30C
# DNA 1: CAATCTGAATTCCGGTCTCCC
# DNA 2: TGGTGGCTACGACGGGATT
# B6: CGGACUG (DNA:RNA)
# RNA: B3 RNA with G25C, U26G, C28A, U29C, C31G
# DNA 1: CAATCTGAATTCCGGTCTCCC
# DNA 2: TGGTGGCTACGACGGGATT
# B7: CCGAUAG (DNA:RNA)
# RNA: B3 RNA with G25C, U26C, C28A, U30A, C31G
# DNA 1: CAATCTGAATTCCGGTCTCCC
# DNA 2: TGGTGGCTACGACGGGATT
# B8: AUUCGCC (DNA:RNA)
# RNA: B3 RNA with G25A, G27U, U29G, U30C
# DNA 1: CAATCTGAATTCCGGTCTCCC
# DNA 2: TGGTGGCTACGACGGGATT
# B9: CGUUUUA (DNA:RNA)
# RNA: B3 RNA with G25C, U26G, G27U, C28U, C31A
# DNA 1: CAATCTGAATTCCGGTCTCCC
# DNA 2: TGGTGGCTACGACGGGATT
# B10: CGUUAUC (DNA:RNA)
# RNA: B3 RNA with G25C, U26G, G27U, C28U, U29A
# DNA 1: CAATCTGAATTCCGGTCTCCC
# DNA 2: TGGTGGCTACGACGGGATT
# B11: UGGAACA (DNA:RNA)
# RNA: B3 RNA with G25U, U26G, C28A, U29A, U30C, C31A
# DNA 1: CAATCTGAATTCCGGTCTCCC
# DNA 2: TGGTGGCTACGACGGGATT
# B12: UACAAUC (DNA:RNA)
# RNA: B3 RNA with G25U, U26A, G27C, C28A, U29A
# DNA 1: CAATCTGAATTCCGGTCTCCC
# DNA 2: TGGTGGCTACGACGGGATT
# B13: GUACACU (DNA:RNA)
# RNA: B3 RNA with G27A, U29A, U30C, C31U
# DNA 1: CAATCTGAATTCCGGTCTCCC
# DNA 2: TGGTGGCTACGACGGGATT
# B14: CCCGUCU (DNA:RNA)
# RNA: B1 RNA with U25C, A27C, G29U, A30C
# DNA 1: CAATCTGAATTCCGGTCTCCC
# DNA 2: TGGTGGCTACGACGGGATT
# B15: CUUAAGC (DNA:RNA)
# RNA: B3 RNA with G25C, G27U, C28A, U29A, U30G
# DNA 1: CAATCTGAATTCCGGTCTCCC
# DNA 2: TGGTGGCTACGACGGGATT
# B16: GAGGCUC (DNA:RNA)
# RNA: B3 RNA with U26A, C28G, U29C
# DNA 1: CAATCTGAATTCCGGTCTCCC
# DNA 2: TGGTGGCTACGACGGGATT
# B17: GUCAUAG (DNA:RNA)
# RNA: B3 RNA with G27C, C28A, U30A, C31G
# DNA 1: CAATCTGAATTCCGGTCTCCC
# DNA 2: TGGTGGCTACGACGGGATT
# B18: GAAAUAU (DNA:RNA)
# RNA: B1 RNA with U25G, C26A, G28A, G29U
# DNA 1: CAATCTGAATTCCGGTCTCCC
# DNA 2: TGGTGGCTACGACGGGATT
# B19: GCAAAGU (DNA:RNA)
# RNA: B1 RNA with U25G, G28A, G29A, A30G
# DNA 1: CAATCTGAATTCCGGTCTCCC
# DNA 2: TGGTGGCTACGACGGGATT
# B20: AUUAGUG (DNA:RNA)
# RNA: B3 RNA with G25A, G27U, C28A, U29G, C31G
# DNA 1: CAATCTGAATTCCGGTCTCCC
# DNA 2: TGGTGGCTACGACGGGATT
# Molecular target: T1, RBFOX1 RRM (Homo sapiens, UniProt Q9NWB1 109-208)
# T1 sequence: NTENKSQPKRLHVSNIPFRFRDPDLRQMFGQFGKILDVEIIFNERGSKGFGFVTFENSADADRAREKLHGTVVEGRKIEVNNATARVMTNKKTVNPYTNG
# Assay: EMSA; HiTS-Eq, 1 nM pool, 10 min; buffer printed only for the single-RNA assays: 10 mM Tris pH 7.5, 150 mM NaCl, 3.4 mM EDTA, 0.001% NP-40, 30 C
# Details: tags: His6 N-terminal (pET28a); label: 5' 32P
# Method in brief: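 These values rest on relative association constants, computed from read-count changes of each RNA species versus the control reaction and normalised to the cognate motif. Reads came from free RNA recovered by 8% native PAGE after purified RbFox RRM (wild type or mutant) at increasing concentrations was equilibrated for 10 min in 50 µL with 1 nM of a 5′-radiolabelled pool with 7 randomized nucleotides and DNA-annealed flanks.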
row,Binder,binding signal
1,B1,0.00397 KA relative to UGCAUGU
2,B2,0.0147 KA relative to UGCAUGU
3,B3,0.0258 KA relative to UGCAUGU
4,B4,0.0109 KA relative to UGCAUGU
5,B5,0.0023 KA relative to UGCAUGU
6,B6,0.0352 KA relative to UGCAUGU
7,B7,0.0142 KA relative to UGCAUGU
8,B8,0.0134 KA relative to UGCAUGU
9,B9,0.00799 KA relative to UGCAUGU
10,B10,0.00879 KA relative to UGCAUGU
11,B11,0.0147 KA relative to UGCAUGU
12,B12,0.00223 KA relative to UGCAUGU
13,B13,0.00245 KA relative to UGCAUGU
14,B14,0.00831 KA relative to UGCAUGU
15,B15,0.00949 KA relative to UGCAUGU
16,B16,0.0238 KA relative to UGCAUGU
17,B17,0.0112 KA relative to UGCAUGU
18,B18,0.0014 KA relative to UGCAUGU
19,B19,0.00637 KA relative to UGCAUGU
20,B20,0.0135 KA relative to UGCAUGU
